# Source: PMC4336329 (PLoS ONE, 2015)
# In all, about 310,000 compounds went through this assay and about 2,200 (0.71%) showed an effect of 50% or more. Effects have a minus sign here. The list shows a part of the results.
# Target: human ether-à-go-go-related gene (hERG) potassium channel (human, UniProt Q12809)
# Assay: primary screen, population patch clamp on CHO cells stably expressing hERG
# human ether-à-go-go-related gene (hERG) potassium channel, sequence (Q12809 whole entry, looked up): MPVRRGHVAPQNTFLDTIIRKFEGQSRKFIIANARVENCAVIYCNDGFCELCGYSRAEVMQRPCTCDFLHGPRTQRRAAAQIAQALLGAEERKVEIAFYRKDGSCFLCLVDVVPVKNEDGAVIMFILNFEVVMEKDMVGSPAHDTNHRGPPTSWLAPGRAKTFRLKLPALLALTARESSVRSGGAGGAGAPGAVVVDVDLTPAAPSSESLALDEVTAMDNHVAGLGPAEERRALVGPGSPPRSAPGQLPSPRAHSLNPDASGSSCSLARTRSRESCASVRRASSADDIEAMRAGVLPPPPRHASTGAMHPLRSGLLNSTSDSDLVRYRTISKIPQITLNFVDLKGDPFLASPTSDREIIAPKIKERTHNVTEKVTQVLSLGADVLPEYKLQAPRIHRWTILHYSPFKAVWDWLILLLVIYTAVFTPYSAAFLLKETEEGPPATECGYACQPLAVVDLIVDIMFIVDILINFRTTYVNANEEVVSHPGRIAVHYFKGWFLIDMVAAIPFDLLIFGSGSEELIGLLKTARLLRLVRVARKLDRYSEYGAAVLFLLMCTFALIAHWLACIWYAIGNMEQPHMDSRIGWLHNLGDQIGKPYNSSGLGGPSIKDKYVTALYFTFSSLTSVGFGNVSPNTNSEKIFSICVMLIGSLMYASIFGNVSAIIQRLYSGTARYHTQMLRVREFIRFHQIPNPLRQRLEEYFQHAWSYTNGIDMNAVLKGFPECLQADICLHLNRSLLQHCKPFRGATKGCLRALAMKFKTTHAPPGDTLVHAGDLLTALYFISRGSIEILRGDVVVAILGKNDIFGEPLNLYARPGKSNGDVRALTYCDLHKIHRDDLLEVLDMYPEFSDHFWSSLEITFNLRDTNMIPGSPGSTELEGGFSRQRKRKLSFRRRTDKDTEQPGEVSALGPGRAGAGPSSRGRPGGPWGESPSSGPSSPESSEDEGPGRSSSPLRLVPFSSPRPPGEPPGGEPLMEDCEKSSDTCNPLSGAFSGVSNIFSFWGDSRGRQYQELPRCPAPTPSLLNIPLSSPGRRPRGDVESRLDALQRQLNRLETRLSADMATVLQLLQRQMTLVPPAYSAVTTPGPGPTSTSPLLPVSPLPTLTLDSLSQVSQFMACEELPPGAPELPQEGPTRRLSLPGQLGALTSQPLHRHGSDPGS
row,SMILES,"hERG current change (%, negative = inhibition) at 1uM"
1,CCc1ccc(N2CN(Cc3ccco3)CNC2=S)cc1,13.3%
2,COc1ccc2[nH]cc(C(=O)CN(C)C)c2c1,11.4%
3,O=C(NNC(=O)c1cc2cc(OC(F)(F)F)ccc2[nH]1)c1ccc(Cl)cc1,5.26%
4,CC(=O)Nc1cccc2c1C(=O)N(c1ccc(C)cc1)C2=O,5.25%
5,COC(=O)c1cc(Br)c(=O)n(Cc2ccc(OC)c(OC)c2)c1,16.7%
6,COc1ccc(CCNC(=O)Cn2cnc3c(cnn3C(C)(C)C)c2=O)cc1OC,3.2%
7,O=C(c1ccccc1)c1c(-c2ccccc2)[nH]n(-c2ccccc2)c(=O)c1=O,13%
8,CC(=O)NC(CCS(C)(=O)=O)C(=O)Nc1cc(Cl)ccc1Cl (centres unmarked),4.45%
9,O=C(CCl)N(c1ccccc1)C1CCCCC1,10.1%
10,COc1ccc([N+](=O)[O-])cc1N(CC(=O)Nc1ccccc1C(=O)N1CCOCC1)S(C)(=O)=O,4.57%
11,CC1CC(C)(C)NC(=S)N1CCC(=O)Nc1ccc2c(c1)OCCO2 (centres unmarked),14.9%
12,O=C(Nc1ccc(F)cc1)OCCOc1ccc([N+](=O)[O-])cc1,-9.28%
13,Cc1cc(C)n(-c2nc3ccccc3c(=O)n2OCc2ccc(Cl)cc2)n1,5.48%
14,COc1cccc(C(=O)Oc2ccc3ccc(=O)oc3c2)c1,30.3%
15,CC(C)CNC(=O)CC(NCC(C)C)C(=O)O (centres unmarked),11.1%
16,CN(CCO)S(=O)(=O)c1ccc2c(c1)C(=NO)c1cc(S(=O)(=O)N(C)CCO)ccc1-2,6.54%
17,O=c1c(F)cn(C2CCCO2)c(=O)n1Cc1c(F)cccc1Cl (centres unmarked),-1.74%
18,CC(C)[C@H](NC(=O)c1ccco1)C(=O)N(C)Cc1c(F)cccc1Cl,8.51%
19,CCN1C(=C2C(=O)c3ccccc3C2=O)C=Cc2ccccc21,2.71%
20,Cn1c(=O)c2c(nc(SCC(=O)N3CCCCCC3)n2C)n(C)c1=O,1.5%
21,O=C(NC(=S)Nc1ccc(N2CCOCC2)cc1)c1cncc(Br)c1,20.4%
22,COc1ccc(OC)c(-c2cc(C3CCN(c4cc(Cl)nc(N)n4)CC3)[nH]n2)c1,1.07%
23,C/C(Cc1ccccc1)=N\NC(=O)CNC(=O)c1cccc(Br)c1,-2.43%

row,SMILES,"hERG current change (%, negative = inhibition) at 1uM"
1,Cc1ccc(/C=C(\NC(=O)c2ccccc2)C(=O)NC(Cc2ccccc2)C(=O)O)cc1 (centres unmarked),14%
2,O=C(Nc1ncccc1Cl)C(Sc1ccccc1)c1ccccc1 (centres unmarked),16.1%
3,COc1cc(C(=O)Nc2ccc3c(c2)N(C(=O)CN2CCN(C)CC2)c2ccccc2CC3)cc(OC)c1OC.Cl,10.8%
4,CCC(C)[C@H](NC(=O)N1CC(=O)Nc2ccccc21)C(=O)Nc1nccs1 (some centres unmarked),12.3%
5,O=C(CCC(NC(=O)OCc1ccccc1)C(=O)O)OCc1ccccc1 (centres unmarked),15.5%
6,C=CCOc1ccc(C(c2c(C(=O)O)[nH]c3ccccc23)c2c(C(=O)O)[nH]c3ccccc23)cc1,5.23%
7,COc1ccc(OCC(=O)N2CC3(C)CC2CC(C)(C)C3)cc1 (centres unmarked),-7.34%
8,O=S(=O)(NCc1ccccn1)C(F)(F)F,10.6%
9,CCOC(=O)NC(NC(=S)Nc1ccc(OCC)cc1)C(Cl)(Cl)Cl (centres unmarked),17%
10,O=C(Oc1ccc(Cl)c2cccnc12)c1cccnc1,13.2%
11,O=c1cc(CO)oc(CN2CCC(Cc3ccccc3)CC2)c1O,16.8%
12,N#CCCN(C(=O)COC(=O)C1=COCCO1)c1ccc(F)cc1,13.6%
13,CC(=O)Nc1ccc(NC(=O)CCS(=O)(=O)c2ccc3c(c2)oc(=O)n3C)cc1,15.7%
14,CC1CCN(S(=O)(=O)c2ccc3c(c2)c(=O)c(C(=O)N2CCOCC2)cn3C)CC1,18.7%
15,O=[N+]([O-])c1ccc(O)c(C=Nc2ccc3c(c2)OCO3)c1,5.28%
16,CCOc1ncccc1C(=O)N=c1sccn1C,14.5%
17,O=C(NC(=S)Nc1ccc2[nH]ncc2c1)c1ccccc1,13.3%
18,COc1ccc2c(c1)C=Cc1ccccc1O2,4.18%
19,Cc1ccccc1NC(=O)CSc1nc(=O)n(CCN2CCOCC2)c2c1CCCC2,0.443%
20,CCOc1ccc(CNc2ccc(N3CCCC3)cc2)cc1,5.97%
21,c1ccc(-c2cnc(-c3ccccn3)nn2)cc1,17.8%
22,CC1CCN(C(=O)c2cc3ccccc3o2)CC1,0.771%
23,Cc1ccccc1NC(=S)N1CCCC1,11.4%

row,SMILES,"hERG current change (%, negative = inhibition) at 1uM"
1,Cc1cc(OC(C)C(=O)Nc2ccncc2)ccc1Cl (centres unmarked),2.35%
2,COC(=O)C/C(O)=C(/N=Nc1cccc(C(F)(F)F)c1)C(=O)OC,14.7%
3,O=C(C1CCN(S(=O)(=O)c2ccccc2[N+](=O)[O-])CC1)N1CCOCC1,-1.29%
4,CN(CC(O)CON=C1c2ccccc2-c2ccccc21)S(=O)(=O)c1ccc(Br)cc1 (centres unmarked),12.9%
5,COC(=O)c1cc(OC)c(OC)cc1NC(=O)Nc1cccc(C(C)=O)c1,4.94%
6,CCCS(=O)(=O)N1CCN(CCN2C(=O)c3cccc4cccc(c34)C2=O)CC1,15.7%
7,CCCn1c2ccccc2c2cc(C(=O)O)ccc21,7.08%
8,COC(=O)c1ccccc1NC(=O)c1cc2n(n1)C(C(F)F)CC(C(F)F)N2 (centres unmarked),12.2%
9,CCn1ccc(-c2ccccc2)c(C#N)c1=O,-0.848%
10,CCC(CC)NC(=O)Nc1ccccc1C,11.5%
11,CC(=O)Oc1ccc(C(=O)Nc2cccc3c2CCCC3)cc1,17.7%
12,Cc1nc2ccccc2c(=O)n1CCCN1CCOCC1,11.4%
13,CCOC(=O)c1c(C(=O)OCC)c(C)n(N2C(=O)CSC2=S)c1C,19.4%
14,O=C(NCC1CCCO1)C(Cc1ccccc1)N1C(=O)C2C3C=CC(C4CC34)C2C1=O (centres unmarked),2.39%
15,COc1cc(OC)c2ccc(=O)oc2c1C(CC(=O)N1CCCC(C)C1)c1ccc2c(c1)OCO2 (centres unmarked),7.87%
16,COc1ccc(C(=O)/C=C/Nc2cc(C)on2)c(OC)c1,-2.29%
17,Fc1ccc(-c2ccnc3nc(N4CCOCC4)nn23)cc1,-0.798%
18,O=C1CC(SC(=NCc2ccc3c(c2)OCO3)Nc2ccccc2)C(=O)N1 (centres unmarked),16.2%
19,N#CC[N+]1(CCCNP2(=O)C=C(c3ccccc3)OC(c3ccccc3)=C2)CCOCC1.[Cl-],-23.2%
20,COC(=O)c1ccc(-n2c(C)nc3ccccc3c2=O)cc1,6.38%
21,Cc1cc(N2CCCC2)ccc1/C=C1\NC(=S)N(C)C1=O,3.21%
22,O=C(COC(=O)c1ccc2[nH]c3c(c2c1)CCCC3)NC1CCS(=O)(=O)C1 (centres unmarked),-0.612%
23,CC(=O)Nc1ccc(S(=O)(=O)Oc2ccc(/C=N/NC(=O)c3ccc(Cl)cc3)cc2)cc1,15.7%

row,SMILES,"hERG current change (%, negative = inhibition) at 1uM"
1,Cn1nnc2cc(C(=O)N3CCSCC3)ccc21,15.2%
2,CN(C)c1ccc(N=Cc2nc(-c3ccccc3)oc2OC(=O)c2cccc(Br)c2)cc1,6.69%
3,O=C(NC(=S)Nc1cccc(-c2ccc(CO)o2)c1)c1cccs1,13.7%
4,CCCn1cc(S(=O)(=O)CC(=O)Nc2ccc(OCC)cc2)c2ccccc21,-2.8%
5,COc1ccc(C2C(C(=O)N3CCCC3)c3cc(OC)c(OC)cc3C(=O)N2C)cc1OC (centres unmarked),8.14%
6,c1ccc(Cc2nnc3sc(-c4ccncc4)nn23)cc1,-3.84%
7,COc1ccc(C2=NN(C(=O)c3cccc([N+](=O)[O-])c3)C(c3cccc([N+](=O)[O-])c3)C2)cc1 (centres unmarked),-10.1%
8,Cc1cc(C(=O)O)c(CCCN)s1.Cl,15.6%
9,Cc1cccc(Oc2sc(C(=O)c3ccccc3)c(N)c2C#N)c1,2.43%
10,CCn1cc(Cl)c(C(=O)Nc2cccc(C(F)(F)F)c2)n1,8.06%
11,O=C1CCN(S(=O)(=O)c2ccccc2)C2CCCCC12 (centres unmarked),-0.853%
12,Cc1ccc(C)c(CSc2nnc(-c3cccs3)n2Cc2ccco2)c1,-5.9%
13,Cc1oc2cc(O)ccc2c(=O)c1Oc1ccc(F)cc1,15.4%
14,Cn1c(=O)c2c(ncn2CC(=O)OCC(=O)Nc2ccccc2)n(C)c1=O,-5.19%
15,CCOc1ccccc1NC(=O)C(Sc1nnc2ccccn12)c1ccccc1 (centres unmarked),9.73%
16,O=C(Nc1cccnc1)c1cccc(-c2cc3ccccc3oc2=O)c1,13%
17,Cc1ccc(NC(=O)c2cc(-c3ccc4c(c3)OCO4)on2)cc1C,15.4%
18,COc1ccccc1NC(=O)N(C1CCCC1)C1CCN(C(C)=O)CC1,-0.739%
19,COCc1c(C(=O)NCC2COc3ccccc3O2)oc2ccccc12 (centres unmarked),7.62%
20,CCn1c2ccccc2c2nnc(SCC(=O)N(C)C3CCS(=O)(=O)C3)nc21 (centres unmarked),4.01%
